Out of some 94,000 compounds screened, about 4,000 (4.3%) were called active. This list was built around the results that the source calls inconclusive (neither active nor inactive); the mix of calls is not that of the screen. Calls come from the whole dose curve; as a rule, active = well fitted inhibition curve with a large enough effect; inconclusive = small, poorly fitted or top-dose-only effect; inactive = no such curve, though single readings can be large or run the other way. Where the call is inconclusive, the potency comes from a doubtful curve fit.
test: Cytotoxic Profiling in NIH 3T3 Cell Line of Diverse Libraries Using Quantitative High-Throughput Screening; conditions: NIH 3T3 viability, CellTiter-Glo ATP luminescence, 48-72 h; activity change, negative = cytotoxicity: at 96.7 µM (top of the series) unless noted; series mostly up to 96.7 µM; note: nearly all actives have a fitted effect of over 55% in size
How it was run: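 NIH 3T3 cells at 400 cells/well received 23 nL of compound by pintool and were incubated 48 or 72 h at 37 °C. Viability was read as ATP-coupled CellTiter-Glo luminescence.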
% is set by controls: 0 for no effect and ±100 for the full control effect; potency is the fitted concentration of half-maximal effect; tags give direction and shape of the fitted curve.

| Compound | Potency | activity change, negative = cytotoxicity | outcome |
| --- | --- | --- | --- |
| O=C(NCc1cccc(Cl)c1)C1CCN(C(=O)c2ccc(-c3cncnc3)cc2)CC1 | inconclusive: 50.1 µM [inhibitor, partial curve, poor fit] |  |  |
| COc1ccc(-c2ccc3ncn(C4CC4)c(=O)c3n2)cc1OC | active: 39.8 µM |  |  |
| Cc1noc2c(NCCN(C)C)cc(-c3ccccc3)nc12 | inconclusive: 50.1 µM [inhibitor, partial curve, poor fit] |  |  |
| COc1ccc(CN2CCN(Cc3cc4ccccc4[nH]3)CC2CCO)c(C)c1C (configuration not stated) | inconclusive: 22.4 µM [inhibitor, full curve, poor fit] |  |  |
| CC(C)CNC(=O)c1coc(COc2ccc3c(c2)C(c2ccccc2)N(C(=O)C(C)C)CC3)n1 (configuration not stated) | active: 39.8 µM |  |  |
| O=C(Nc1ccc(C2(C(=O)N3CCN(c4ccccn4)CC3)CCC2)cc1)C1CC1 |  | inactive: -7.14% |  |
| O=C(NCCc1ccc(Cl)cc1)C1CCN(C(=O)c2ccc(-c3cccs3)cc2)CC1 | inconclusive: 20 µM [inhibitor, full curve, poor fit] |  |  |
| CCOC(=O)[C@H]1CN(C(=O)c2ccc3c(c2)OCCCO3)[C@]2(C)C(=O)N(CCOC)c3ccccc3[C@H]12 |  | inactive: -25.7% |  |
| O=C(NCCCn1ccnc1)c1cnc2c(c1)N(C(=O)CCc1ccccc1)CCC2 | inconclusive: 112 µM [inhibitor, single point] |  |  |
| CC(C)(Oc1nn(CC2CCOCC2)c2ccccc12)C(=O)NCc1ccccc1 | inconclusive: 63.1 µM [inhibitor, partial curve, poor fit] |  |  |
| CN1C(=O)COC[C@@H]1[C@H](O)c1ccc(NC(=O)c2ccc(C(F)(F)F)cc2)cc1 | inconclusive: 56.2 µM [inhibitor, partial curve, poor fit] |  |  |
| CCc1ccc(C(=O)N2CCC(Cc3nc(-c4cccc(OC)c4)no3)CC2)cc1 | active: 39.8 µM |  |  |
| CCNC(=O)c1cc2n(n1)CC(c1ccc(Br)cc1)OC2 (configuration not stated) | inconclusive: 50.1 µM [inhibitor, partial curve, poor fit] |  |  |
| COc1ccc(C(=O)NC2CCN(c3cc(-c4ccc(F)cc4)[nH]n3)C2)c(OC)c1 (configuration not stated) | inconclusive: 50.1 µM [inhibitor, partial curve, poor fit] |  |  |
| Cc1noc2c(NC3CCN(C)CC3)cc(-c3ccc(F)cc3)nc12 | active: 10 µM |  |  |
| CSc1ccccc1C(=O)N1CCOC(Cc2cccc(F)c2)C1 (configuration not stated) | inconclusive: 89.1 µM [inhibitor, single point] |  |  |
| O=C1CCCCCN1CCc1nc(C2CCOC2)no1 (configuration not stated) |  | inactive: -14.4% |  |
| COc1ccc(C(=O)N2CCN(c3cc(-c4ccc(Cl)cc4)[nH]n3)CC2)cc1OC | inconclusive: 17.8 µM [inhibitor, partial curve, poor fit] |  |  |
| Cc1ccccc1NC(=O)N1CCC2(CC1)C(=O)N(c1cccc(F)c1)C2c1ccccc1 (configuration not stated) | inconclusive: 44.7 µM [inhibitor, partial curve, poor fit] |  |  |
| O=C(c1cn[nH]c1-c1ccccc1)N1CC2CC(C1)[C@H]1CCCC(=O)N1C2 (some centres not stated) |  | inactive: 0.872% |  |
| CC(C)n1cnnc1CN(C)c1nc(N)nc2nc[nH]c12 |  | inactive: 0.959% |  |

| Compound | Potency | activity change, negative = cytotoxicity | outcome |
| --- | --- | --- | --- |
| Cc1ccccc1C(=O)NC1CCCN(CCn2nc3n(c2=O)CCCC3)C1 (configuration not stated) |  | inactive: -6.69% |  |
| CCNC(=O)[C@@H]1C[C@H](NC(=O)Cc2cc(C)ccc2C)CN1C1CCCC1 |  | inactive: -16.1% |  |
| O=C1NC(=NC2CCCCC2)C2(CCN(Cc3ccsc3)C2)N1c1cccnc1 (configuration not stated) | inconclusive: 44.7 µM [inhibitor, partial curve, poor fit] |  |  |
| COc1ccc(CNC(=O)C[C@@H]2c3nc(NC(=O)c4cccs4)sc3C[C@@H]3[C@](C)(CO)[C@H](O)CC[C@]32C)cc1 | inconclusive: 39.8 µM [inhibitor, full curve, poor fit] |  |  |
| Cc1ccc([S+](=O)([O-])N2CCCC(C(=O)N3CCCC(c4nc5ccncc5[nH]4)C3)C2)cc1 (configuration not stated) | inconclusive: 12.6 µM [inhibitor, partial curve, poor fit] |  |  |
| O=C1NC2(CCN(S(=O)(=O)c3cccs3)CC2)Oc2ccccc21 | inconclusive: 25.1 µM [inhibitor, partial curve] |  |  |
| COc1ccc(NC(=O)N2Cc3[nH]cnc3C[C@H]2c2nc(-c3ccc4ccccc4c3)no2)cc1 | inconclusive: 50.1 µM [inhibitor, partial curve, poor fit] |  |  |
| OC(c1nc(Nc2ccc(N3CCOCC3)cc2)n[nH]1)C1CC1 (configuration not stated) | inconclusive: 112 µM [inhibitor, single point] |  |  |
| COC(=O)c1ccc2nc(C[C@@H]3C[C@@H](C(C)C)[C@H](CNC(=O)C4CCCCC4)C=C3C)[nH]c2c1 | inconclusive: 44.7 µM [inhibitor, partial curve, poor fit] |  |  |
| CN1C[C@H](O)[C@]2(CCN(Cc3ccc(OC(F)(F)F)cc3)C2)S1(=O)=O |  | inactive: -27.3% |  |
| Cc1ccc(C2Cn3nnc(C(=O)N4CCN(C(=O)c5cccc(C)c5)CC4)c3CO2)cc1 (configuration not stated) | inconclusive: 39.8 µM [inhibitor, partial curve, poor fit] |  |  |
| O=C(C1CCCCN1Cc1ccc(-c2cccs2)cc1)N1CCCC1 (configuration not stated) | inconclusive: 79.4 µM [inhibitor, partial curve, poor fit] |  |  |
| Cc1ccsc1-c1nc(CN2CCC(CCn3cccn3)CC2)c(C)o1 | inconclusive: 79.4 µM [inhibitor, partial curve, poor fit] |  |  |
| CC(=O)N1CC[C@H](c2nc3ccc(C(F)(F)F)cc3[nH]2)C1 | inconclusive: 141 µM [inhibitor, single point] |  |  |
| O=C(CCc1ccco1)N1CCC(C2CCN(Cc3cccc(F)c3F)CC2)C1 (configuration not stated) | inconclusive: 31.6 µM [inhibitor, partial curve] |  |  |
| O=C(C1CCCC1)N1CCN(c2nnc3c(Cl)cccn23)CC1 |  | inactive: -19.5% |  |
| CC(C)(C)c1nnc([C@H]2CCN(C(=O)CCC(=O)O)C2)o1 |  |  | inactive [at 138 µM] |
| COCCN(CCOC)CC[C@@H]1CC[C@H](O)[C@@H](C(=O)Nc2ccccc2)O1 |  | inactive: -0.113% [at 138 µM] |  |
| CCOC(=O)[C@@H]1[C@@H](O)C(=O)N(Cc2ccccc2)C12CCN(C(=O)c1ccc(C(C)(C)C)cc1)CC2 | inconclusive: 44.7 µM [inhibitor, partial curve, poor fit] |  |  |
| Cc1ccc(C(=O)N2CCCC(c3nc(-c4cccnc4)no3)CCNC(=O)CC2)cn1 (configuration not stated) |  | inactive: -18.7% |  |
| O=C(NCCOc1ccccc1)c1cnc2n1CCN(Cc1ccc(F)cc1)CC2 | inconclusive: 89.1 µM [inhibitor, partial curve, poor fit] |  |  |

| Compound | Potency | activity change, negative = cytotoxicity | outcome |
| --- | --- | --- | --- |
| CCOC(=O)C1(Cc2ccccc2F)CCCN(C(=O)c2ccc(OC)nc2OC)C1 (configuration not stated) | inconclusive: 44.7 µM [inhibitor, partial curve, poor fit] |  |  |
| COc1ccccc1CCC(=O)N1CCN(c2cc(-c3ccc(Cl)cc3)[nH]n2)CC1 | active: 31.6 µM |  |  |
| Cc1ccc(-c2nnc([C@H]3CCN(c4ncccn4)C3)o2)cc1 |  | inactive: -13.8% [at 174 µM] |  |
| O=C(C1CCC1)N1CCC2(CC1)CC(N(Cc1ccccc1)C1CC1)CCO2 (configuration not stated) | inconclusive: 39.8 µM [inhibitor, partial curve, poor fit] |  |  |
| COc1cc(C(=O)NC2CCN(c3cc(-c4ccccc4)[nH]n3)CC2)cc(OC)c1OC | inconclusive: 22.4 µM [inhibitor, partial curve, poor fit] |  |  |
| NC1CCCCN(C(=O)CCN2CCc3ccccc32)C1 (configuration not stated) |  | inactive: -28.4% |  |
| Fc1cccc(Cc2noc(-c3nc(-c4ccccc4)no3)n2)c1 |  | inactive: -15.1% |  |
| COc1ccc(OC)c(CN2CCC3(CC2)OC(=O)N(Cc2ccccc2C#N)C3(C)c2ccccc2)c1 (configuration not stated) | inconclusive: 31.6 µM [inhibitor, full curve] |  |  |
| COc1ccc(-c2noc([C@@H]3C[C@H](NS(=O)(=O)c4ccc(F)cc4)CN3C)n2)cc1 | inconclusive: 112 µM [inhibitor, single point] |  |  |
| COc1ccc(-c2cc(C(=O)N3CCOCC3)c3c(C)nn(-c4ccccc4)c3n2)cc1 | inconclusive: 50.1 µM [inhibitor, partial curve, poor fit] |  |  |
| COCCN1C(=O)[C@@H]2C[C@@H](CN2Cc2cnc3ccccc3c2)Oc2ccccc21 | active: 100 µM |  |  |
| O=C1Nc2ccccc2NC12CCN(Cc1c(F)cccc1Cl)CC2 | inconclusive: 31.6 µM [inhibitor, partial curve, poor fit] |  |  |
| COc1ccccc1-c1ccc(CN2CCC(NC(=O)Cc3cccc(Cl)c3)C2)cc1 (configuration not stated) | inconclusive: 31.6 µM [inhibitor, full curve, poor fit] |  |  |
| Cc1cnn(CC(=O)N2CC(F)(F)C[C@H]2c2nc(C3CC3)no2)c1 |  | inactive: -0.126% |  |
| C#CCNC(=O)c1nc(-c2ccc(Cl)cc2)c2ccccn12 | inconclusive: 14.1 µM [inhibitor, full curve, poor fit] |  |  |
| COc1ccc(C(=O)NC2CCN(c3nccc(Nc4ccc(C)cc4)n3)CC2)cc1 | inconclusive: 20 µM [inhibitor, full curve, poor fit] |  |  |
| Cc1ccc(-c2ncc(C(=O)Nc3ccccc3C)c(-c3ccncc3)n2)cc1 | inconclusive: 44.7 µM [inhibitor, partial curve, poor fit] |  |  |
| C=C(C)CN(C)C(=O)Cc1c2c(n(Cc3ccccc3F)c1C)CCCC2=O | inconclusive: 44.7 µM [inhibitor, partial curve, poor fit] |  |  |
| COc1ccc(-c2ccc(C(=O)NCCCc3ccccc3)cc2)nn1 | inconclusive: 112 µM [inhibitor, partial curve, poor fit] |  |  |
| CCN1CCN(c2nc3c(s2)CN(Cc2ccccn2)CC3)CC1 | inconclusive: 70.8 µM [inhibitor, single point] |  |  |

Reference: PubChem BioAssay AID1345082 (National Center for Advancing Translational Sciences (NCATS), 2018)
